Measurements reported in article PMC6919601, “Identification of Plasmodium dipeptidyl aminopeptidase allosteric inhibitors by high throughput screening” (PLoS ONE, 2019).
About 230 (0.21%) of roughly 110,000 compounds showed an effect of 50% or more. The list shows a part of the results.

The compounds below were run against DPAP1 (Plasmodium falciparum, UniProt Q8IIJ9) (assay: primary screen, percent inhibition; read by cleavage of a fluorogenic dipeptide substrate; higher = more effect of the substance).
Design: species or system P. falciparum D10 trophozoite lysates; single well
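Also: 30 min substrate incubation versus DMSO and 10 µM JCP410 controls.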

DPAP1, sequence (Q8IIJ9 whole entry, looked up): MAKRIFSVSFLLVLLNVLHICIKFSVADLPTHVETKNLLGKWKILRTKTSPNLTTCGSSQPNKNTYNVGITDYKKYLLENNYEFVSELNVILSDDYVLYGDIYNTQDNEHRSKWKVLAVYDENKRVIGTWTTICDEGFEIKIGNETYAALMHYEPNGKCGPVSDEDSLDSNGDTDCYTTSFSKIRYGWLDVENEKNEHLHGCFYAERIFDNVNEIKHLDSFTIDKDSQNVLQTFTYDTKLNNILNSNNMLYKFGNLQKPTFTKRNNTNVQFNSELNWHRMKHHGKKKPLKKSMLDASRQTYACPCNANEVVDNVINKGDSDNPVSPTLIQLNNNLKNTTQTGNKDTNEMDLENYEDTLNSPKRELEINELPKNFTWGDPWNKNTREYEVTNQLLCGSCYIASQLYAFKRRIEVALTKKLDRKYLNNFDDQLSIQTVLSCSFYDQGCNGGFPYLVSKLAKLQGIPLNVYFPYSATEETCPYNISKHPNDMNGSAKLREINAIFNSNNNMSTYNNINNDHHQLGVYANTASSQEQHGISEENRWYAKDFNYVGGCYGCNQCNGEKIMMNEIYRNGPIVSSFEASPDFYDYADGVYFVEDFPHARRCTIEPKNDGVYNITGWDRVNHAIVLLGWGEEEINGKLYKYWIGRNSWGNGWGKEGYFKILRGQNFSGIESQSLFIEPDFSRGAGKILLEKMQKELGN

| SMILES | % Inhibition @ 10 uM [%] |
| --- | --- |
| COc1cc2c(cc1OC)C(C)N(C(=O)Nc1cn(C)c(=O)c3ccccc13)CC2 (stereo not shown) | 10.3 |
| O=c1c2ccccc2nc(/C=C/c2cccc(Br)c2)n1CCO | 15.6 |
| CCN1C(=O)N/C(=C/c2ccc(OCC(=O)O)cc2)C1=O | 2 |
| COc1ccccc1C1C(C(C)=O)=C(O)C(=O)N1CCc1ccccc1 (stereo not shown) | -3.09 |
| CCn1c(=S)[nH]c2sc3c(c2c1=O)CCCC3 | 42.2 |
| Nc1nc(-c2ccco2)nc(-c2ccco2)n1 | -15.6 |
| Cc1ccccc1Cc1c(C)nc2nc(SCC(=O)N3CCC(C)CC3)nn2c1C | -5.69 |
| Cc1ccc(Nc2nc(-c3sc(C)nc3C)cs2)cc1 | 8.19 |
| CN(CC(=O)N1CCN(c2ncccn2)CC1)S(=O)(=O)c1cccc2nsnc12 | 3.63 |
| Cc1c(C(=O)N2CCOCC2)sc2nc3n(c(=O)c12)N=C(c1ccc(Cl)cc1)CS3 | 15.2 |
| Cc1cccc(NC(=O)c2cccc(N3C(=O)C4C5C=CC(C6CC56)C4C3=O)c2)c1 (stereo not shown) | -4.91 |
| Cc1cc(C(=O)NC2CCN(Cc3ccccc3)CC2)c2c(C)nn(-c3ccccc3)c2n1 | -3.1 |
| CCOC(=O)C1=C(CC)OC(N)=C(C#N)C1c1ccc(Br)s1 (stereo not shown) | -10.8 |
| O=C(c1c(O)c2ccccc2oc1=O)C1CC1 | -2.21 |
| CCOC(=O)c1cc(-c2ccccc2)sc1NC(=O)c1ccc(C)cc1 | -6.6 |
| COc1cc(C(=O)N2CCN(C(=O)c3ccccc3)CC2)cc(OC)c1OC | 4.83 |
| Cc1nc2sc3c(c2c(=O)n1CC(=O)c1ccc(Cl)c(Cl)c1)CCCC3 | 4.08 |
| COc1ccc(CCNC(=O)CSc2nc(N)c3c4c(sc3n2)CCC4)cc1OC | 48.4 |
| O=C(NCc1cccnc1)c1ccc(COc2ccccc2Br)o1 | 2.1 |
| C/N=c1\c(NC(=O)c2ccc(Cl)cc2)c(O)oc2ccccc12 | 2.5 |
| CC(C)c1ccc(N2CC(C(=O)Nc3cccc(F)c3)CC2=O)cc1 (stereo not shown) | 6.86 |
| Nc1c(-c2nc(-c3ccccc3)no2)nnn1-c1cccc(C(F)(F)F)c1 | 0.868 |
| O=C(c1ccco1)N1CCN(C(=O)C2CCN(c3nnc(-n4cccc4)s3)CC2)CC1 | -5.38 |
| Cn1cc([N+](=O)[O-])c(C(=O)Nc2ccc(Cl)cc2)n1 | 1.38 |
| C=C(C)COc1ccc(/C=C(/NC(=O)c2ccccc2)C(=O)O)cc1OC | -4.93 |

| SMILES | % Inhibition @ 10 uM [%] |
| --- | --- |
| Clc1ccc(-c2noc3ncnc(N4CCN(c5ncccn5)CC4)c23)cc1 | -2.41 |
| Cc1nn(CC(=O)NCCCc2ccccc2)c(=O)c2nn(-c3ccccc3)c(C)c12 | -3.81 |
| NC(=O)c1sc2nc3c(cc2c1N)CCC3 | -1.07 |
| CC1CCCC(NC(=O)Cn2ccc3ccccc3c2=O)C1C (stereo not shown) | 5.88 |
| CCc1cc(=O)oc2cc(OCc3cccc(F)c3)ccc12 | 1.84 |
| O=C(Nc1cccc2ccccc12)C12CC3CC(C1)CC(n1cncn1)(C3)C2 | -3.68 |
| CC(=O)C1=C(O)C(=O)N(Cc2ccccc2)C1c1ccccc1 (stereo not shown) | -4.32 |
| Cc1ccc(S(=O)(=O)NC(C)C(=O)Nc2ccc(F)c(Cl)c2)cc1 (stereo not shown) | 0.709 |
| COc1ccc2[nH]c3c(=O)n(CCCC(=O)N4CCc5ccccc5C4)c(=S)[nH]c3c2c1 | 4.28 |
| CCOc1ccc(S(=O)(=O)NC(C)C)cc1C(N)=O | 2.72 |
| Cc1ccc(NC(=O)CN2C(=O)c3ccccc3C2=O)c(C(=O)O)c1 | 3.8 |
| CC(C)Cc1ccc(C(C)C(=O)Nc2ccc(/C=C/c3ccccc3)cc2)cc1 (stereo not shown) | 4.54 |
| O=C(Nc1ccc2nc(O)nc(-c3ccccc3)c2c1)C(F)(F)F | -2.28 |
| CCCN(CCC)S(=O)(=O)c1ccc(NC(C)=O)cc1 | 2.6 |
| CCNC(=O)CCc1ccc(S(=O)(=O)NCC(C)C)cc1 | -2.83 |
| CN(c1nnc(NC(=O)NC23C[C@H]4C[C@@H](C2)C[C@@H](C3)C4)s1)C1CCCCC1 | -3.08 |
| N#C/C(=C(/O)CCN1C(=O)c2ccccc2C1=O)c1nc2ccccc2[nH]1 | 4.86 |
| COc1ccc(C2=NN(C(C)=O)C(c3ccccc3F)C2)cc1 (stereo not shown) | -4.7 |
| C=C(C)Cn1c(NCCC)nc2c1c(=O)n(C)c(=O)n2C | 0.343 |
| O=C(c1cc2nc(-c3ccco3)cc(C(F)(F)F)n2n1)N1CCN(c2ccc(F)cc2)CC1 | 1.72 |
| Cc1ccc(C2C(C(=O)c3ccc(OC(C)C)cc3)=C(O)C(=O)N2Cc2cccnc2)cc1 (stereo not shown) | -9.98 |
| CN(C(=O)CCNS(=O)(=O)c1ccc2nc(O)ccc2c1)C1CCCCC1 | -4.93 |
| O=C(NCCc1ccccn1)c1nc(-c2ccc(-n3cccc3)cc2)no1 | -2.05 |
| COc1ccccc1C1=N/C(=C\c2cccnc2)C(=O)O1 | 7.46 |
| Cc1nn(-c2ccccc2)c2sc(C(=O)NC3CCCCC3)cc12 | 3 |

| SMILES | % Inhibition @ 10 uM [%] |
| --- | --- |
| Cc1nn(-c2ccccc2)c(-n2cccc2)c1C(=O)NCCCN1CCCC1=O | -1.8 |
| CC(=O)c1cccc(Nc2nc(-c3c(C)nc4ccccn34)cs2)c1 | 1.15 |
| CC(C)CC(C(=O)NCC#N)c1cccc(-c2ccc(S(=O)(=O)N3CCN(CC(F)(F)F)CC3)cc2)c1 (stereo not shown) | -4.72 |
| N#CC1=C(N)N(c2nc[nH]n2)C2=C(C(=O)CCC2)C1c1ccccc1Cl (stereo not shown) | -1.98 |
| CCOC(=O)c1c(-c2ccccc2)csc1NC(=O)c1cc(-c2ccc(OC)cc2)on1 | 2.65 |
| Cc1nnc(SCCCC(=O)c2ccc(C(C)(C)C)cc2)s1 | 5.7 |
| CC(=O)NC1=NC(=O)/C(=C/c2cccc(Oc3ccccc3)c2)S1 | 6.22 |
| CNS(=O)(=O)c1ccc2c(O)cc(S(=O)(=O)NC)cc2c1 | -2.56 |
| CC(NS(=O)(=O)c1ccc(Br)cc1)c1ccccc1 (stereo not shown) | 2.13 |
| CCN1C(=O)CS/C1=C(\C#N)S(=O)(=O)c1ccccc1 | 5.44 |
| OC1CCCN(C2CCN(Cc3ccccc3)CC2)C1 (stereo not shown) | 2.1 |
| NC(=O)COc1ccc(-c2noc(COc3cccc(Cl)c3)n2)cc1 | -5.11 |
| CCN(CC)CCNC(=O)Cn1cccc1C(=O)c1ccccc1 | 2.76 |
| COc1ccc(S(=O)(=O)N2CCc3ccccc3C2)c(C)c1C | -1.33 |
| O=C(Nc1c(C(=O)N2CCN(Cc3ccccc3)CC2)cnn1-c1ccccc1Cl)c1ccco1 | -1.52 |
| C=CCOC(=O)C1=C(C)N=C2CC(C)(C)CC(O)=C2C1c1ccccc1Cl (stereo not shown) | 5.37 |
| CC1=C(c2ccc(C)cc2)S(=O)(=O)N=C1NC(C)C12CC3CC(CC(C3)C1)C2 (stereo not shown) | 2.27 |
| C/N=C/c1sc2ccccc2c1O | 23.9 |
| COc1ccc(S(=O)(=O)Nc2ccc(S(=O)(=O)N3CCCCC3)cc2)c(Cl)c1Cl | -4.7 |
| O=C(Nc1cccc(NS(=O)(=O)c2ccc(Cl)cc2)c1)c1ccccc1 | -1.61 |
| Cc1[nH]c2ccccc2c1C(=O)CN1CCN(c2ccccn2)CC1 | 0.032 |
| COc1ccc(N2CCN(Cc3cc(Br)c(O)c(OC)c3)CC2)cc1 | -6.47 |
| COc1ccc(NC(=O)COc2cc(C)ccc2C(C)C)cc1 | -5.45 |
| COc1ccc2nc(NC(=O)c3nc(SC)ncc3Cl)sc2c1 | -1.11 |
| CCOC(=O)c1c(C)c(C(=O)NC(C)CC)c(C)n1Cc1ccccc1 (stereo not shown) | -5.27 |

| SMILES | % Inhibition @ 10 uM [%] |
| --- | --- |
| Cc1cc(C)c(C)c(OCCCCN2CCCC2)c1 | 1.35 |
| O=C(COc1ccc(C2C3=C(CCCC3=O)OC3=C2C(=O)CCC3)cc1Cl)Nc1ccccc1 | -1.44 |
| O=C(NCc1ccc2c(c1)OCO2)c1ccc(CS(=O)c2ccccc2Cl)o1 (stereo not shown) | 5.41 |
| CCCOc1ccc(N2CC(C(=O)NC(C)C)CC2=O)cc1 (stereo not shown) | -1.84 |
| Brc1cccc(CN2CCN(C/C=C/c3ccccc3)CC2)c1 | 0.847 |
| O=C(Nc1ccccc1F)[C@@H]1C2C=CC(C2)[C@@H]1C(=O)O (stereo partly shown) | -8.15 |
| COc1ccc(Br)cc1CNC(=O)C1CCCN(c2nn3c(=O)cc(C)nc3s2)C1 (stereo not shown) | 6.06 |
| Nc1nc2nc(-c3ccco3)cc(C(F)(F)F)n2n1 | 2.05 |
| O=C(Nc1nnc(-c2ccccc2)s1)c1ccc(Cl)c(S(=O)(=O)N2CCOCC2)c1 | 1.55 |
| FC(F)(F)c1cccc(CN2CCOCC2)c1 | 0.217 |
| Cc1cccc(S(=O)(=O)Nc2ccc(-c3cn4cccc(C)c4n3)cc2)c1 | -0.545 |
| O=C(c1cc2c(Cl)nc3ccccc3c2s1)N1CCC(N2CCCCC2)CC1 | 4.95 |
| Cc1ccc(-c2ccc(=O)n(CC(=O)NC3CCCCC3C)n2)cc1 (stereo not shown) | 5.35 |
| Cc1noc(C(=O)N2CCN(Cc3ccc4c(c3)OCO4)CC2)c1Cl | 1.62 |
| N#Cc1ccccc1S(=O)(=O)N1CCCC(c2nc(O)c3nnn(Cc4ccc(F)cc4)c3n2)C1 (stereo not shown) | -1.31 |
| COC(=O)/C(C#N)=C/c1c(Oc2ccc(Cl)c(C)c2)nc2ccccn2c1=O | -0.828 |
| O=C(NCCC1=CCCCC1)C1CCC(CNS(=O)(=O)c2cccc3nsnc23)CC1 (stereo not shown) | 1.26 |
| COc1ccc(C(=O)Nc2ccc(C)c(Cl)c2)cc1[N+](=O)[O-] | 4.6 |
| O=C(c1ccco1)N1CCN(C(=O)c2ccc(CS(=O)Cc3ccccc3Cl)o2)CC1 (stereo not shown) | -0.434 |
| O=C1NC(=O)C(C2c3c(O)nc(O)nc3Oc3ccc4ccccc4c32)C(=O)N1 (stereo not shown) | -2.32 |
| COc1ccc(CCNC(=O)Cc2ccc3c(c2CO)OCO3)cc1OC | -3.87 |
| Cc1cc(C)cc(NC(=O)c2ccc([N+](=O)[O-])cc2Cl)c1 | -3.04 |
